Reference: the supplement of paper PMC10126150
Values marked as one replicate rest on one cluster of the flow cell; about a third of the high ones do not repeat.

Test system: ATP
Test: switch fluorescence ratio, 500 uM ATP over buffer (Cy3 cluster intensity, sum of 5 cycles each) (fold (ratio)); higher = stronger signal-on switching upon ATP binding; sequences stand for … in TCGTCGGCAGCGTCAGATGTGTATAAGAGACAGTTTTTTTTTTTTTTTTTTTTTTTTT…TC
Conditions: aptamer strand: ATP DNA aptamer (quencher-CACCTGGGGGAGTATTGCGGAGGAAGG + anchor), 100 nM annealed; ATP concentration: 500 uM; one replicate
Outline: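 For every switch-domain sequence, the fluorescence ratio is the mean of per-cluster values, each being summed target-cycle Cy3 intensity over summed buffer-cycle Cy3 intensity. Clusters outside 100-1000 RFU were excluded. On a modified Illumina MiSeq flow-cell, the Cy3-labelled switching-strand clusters were annealed to 100 nM quencher-labelled ATP aptamer, imaged in selection buffer and then after 15 min with 500 uM ATP at 22 °C. Five such cycles were run, with NaOH stripping and re-annealing between them.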
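Also: ATP exposure 15 min at 22 °C before imaging.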

| Sequence | switch fluorescence ratio |
| --- | --- |
| CAAGACGTGT | 0.979 |
| TTCTGACGGC | 1.05 |
| AAAGGCTAAT | 0.993 |
| GCCTGTTATG | 0.993 |
| CAATCGTCAC | 1.08 |
| ACTAGGCCGT | 1.07 |
| CACTCGTTCA | 1.04 |
| AACCGGGATG | 1.05 |
| TTAGTAGCAT | 1.04 |
| TTTGACGCAG | 1.02 |
| AGCTGGGAGC | 1.04 |
| ATTTCGGACT | 0.965 |
| TTTAGCTTGG | 1.05 |
| CTTAGTGCTA | 1.03 |
| AAAGACAACC | 1.13 |
| TTGATGACCA | 1 |
| ACGATTCTTC | 0.985 |
| GGATTTGTAC | 1 |
| CTTAGAATAA | 0.995 |
| CATTCATCTG | 1.14 |
| ACCATTTTC | 0.966 |
| CTCAGGTAAC | 1.14 |
| GCAAGGACTG | 1.03 |

| Sequence | switch fluorescence ratio |
| --- | --- |
| CAGTAACCCT | 1.09 |
| AGCTATGCGT | 1.01 |
| CTATAGCCAG | 0.988 |
| GAGGTGGTTT | 1 |
| TAGTTAAACG | 1.01 |
| CTTTACCAAA | 1.03 |
| GGAGTAAGAA | 1.3 |
| CCGTGTGTCT | 1.03 |
| CCAGCAGGAA | 0.994 |
| CGTATGTGAC | 0.945 |
| CCTCATGTTT | 1.21 |
| CTCGGAATTA | 1.11 |
| CTTGGGAGGA | 1.02 |
| CGCGCCTAG | 0.987 |
| GTAGAAATGC | 5.12 |
| GGATGAAAGT | 0.985 |
| TCTTAGCTCT | 1 |
| CTTTGATTCC | 1.05 |
| GATTCGACAT | 1.04 |
| CTTGCGAGAA | 1.26 |
| TTTCTTACCG | 1.02 |
| CCTTTGATCG | 0.988 |
| TTTCGTCTGA | 1 |

| Sequence | switch fluorescence ratio |
| --- | --- |
| ACGAAGCGTC | 2.52 |
| TCTATTAATT | 0.991 |
| CACGACATT | 1.13 |
| CTCGGCGCGG | 0.977 |
| CTAATGAAGA | 0.978 |
| TAACGCAGTA | 0.998 |
| CCTGGACGGG | 1.02 |
| CCCAAAATCG | 0.992 |
| CACAAGGCGA | 0.979 |
| ACACCGAGTT | 1.09 |
| ATCCTCGAAT | 1.01 |
| TGAGACTGTG | 1.06 |
| CGTATTGAAC | 1.02 |
| GTGACAGGAT | 0.977 |
| ACTCACTTAG | 1.16 |
| GAGTAACTTC | 0.937 |
| TGTCAGTCGC | 0.986 |
| TCTTATCTAG | 1.03 |
| TTCATTTTTC | 0.946 |
| TTGCCTAAAA | 0.981 |
| GAAGGATGCA | 1.02 |
| CTTGAGCCTA | 1.02 |
| AATTGGACCG | 1.05 |

| Sequence | switch fluorescence ratio |
| --- | --- |
| TTGTTCACTA | 1.03 |
| ATATCTCATA | 0.971 |
| TTCCGACGGA | 2.79 |
| TAGTACGATA | 1.11 |
| CGGGCTGTGT | 1 |
| CATCCTAGCC | 1.19 |
| CTAGAGCCGG | 0.987 |
| CAGTGACTAA | 1.02 |
| GATTGAGCGA | 1.01 |
| TGGGTACAAA | 1.04 |
| GGCAAGGGGA | 1.04 |
| TAGCGGGCCC | 0.984 |
| TGTTAGTCCG | 0.915 |
| CGTAGCTCCT | 1.04 |
| GGTGGGGAGG | 1.02 |
| TTAGGTCTGG | 0.997 |
| ACGTTTGCGA | 1.02 |
| GCGAACCCTT | 1.01 |
| AAGTCCGTAT | 1 |
| GGGCTTGATG | 1.02 |
| ATGGAATACC | 1.07 |
| ATGCGGGAGC | 0.989 |
| ATTAATGAGC | 1 |

| Sequence | switch fluorescence ratio |
| --- | --- |
| AAGGCTCATC | 1.01 |
| CGGTCGCAGG | 1.03 |
| ATCACACCTT | 1.19 |
| TAGGAATCAA | 0.979 |
| TTATGAGCCG | 0.957 |
| GTATTTGAAC | 0.998 |
| GATGTCATTC | 0.977 |
| CTTACCTTGT | 0.969 |
| ATGATCTATC | 0.971 |
| TACTTATTTC | 1.02 |
| GCTTTACCGC | 1.09 |
| GGCGATGGCG | 1.01 |
| AATGCAGAGC | 0.946 |
| GGTGTTACCC | 0.99 |
| CTGGAGCGGA | 1.13 |
| CCGAGTCAGC | 2.69 |
| CACGGCGGGT | 1.02 |
| GCGTTCAAGT | 0.963 |
| TATCTAGAAG | 1.01 |
| GGCTTTCAAT | 1.01 |
| GGGTTGTACT | 0.984 |
| GTCAAACAAG | 0.983 |
| AGTAAATGCC | 0.981 |

| Sequence | switch fluorescence ratio |
| --- | --- |
| ATATATTGCA | 1.01 |
| GGAGCTGGAA | 1.06 |
| TACCTTATAC | 1.24 |
| GCTTCCACAG | 2.07 |
| GGTCGGCAAA | 1.17 |
| GCCTGGGATT | 1.04 |
| CGGGGTGGAG | 1.08 |
| GACTTCGGAC | 1.21 |
| CTAGTTATCG | 0.983 |
| ACGAGCCACG | 1.03 |
| TACGTAAGTG | 1.06 |
| CTGGGTCCGA | 1.03 |
| TTGCGCTAAC | 1.46 |
| TATCGGACTA | 1 |
| ATTGTGTGGA | 1.04 |
| GCGGGACTTA | 1.06 |
| GCTAAATCAA | 1.03 |
| CATTCCGGGG | 1.1 |
| CCGAGTGGTA | 1.27 |
| GAATTTTAAG | 0.956 |
| TCGGAAAGAT | 0.977 |
| TATCCACTGG | 1.06 |
| GGCTCAGATC | 1.02 |

| Sequence | switch fluorescence ratio |
| --- | --- |
| AATTGGCACA | 1 |
| GGGGCACATG | 0.983 |
| GGCAATTAGT | 1.02 |
| AATAACATAT | 1.24 |
| CCGTAAGGTT | 0.993 |
| GAAAGATGTA | 0.99 |
| CTCTGCGTCT | 1.08 |
| TTGCTGGTGG | 1.1 |
| TAACCGCCTG | 1.11 |
| ACTCCAGGCG | 1.05 |
| CTCGGTCGAA | 0.995 |
| GTTTGGGAGA | 0.941 |
| CAGGCTTTGG | 0.991 |
| ATCAGTAGGT | 0.988 |
| CTGAACTGCA | 1.28 |
| ACCCATGACC | 1.13 |
| TCTTTAAGAG | 0.996 |
| CATGTTGTG | 1.02 |
| TAGGTTACTT | 1.01 |
